# Laboratory results: PubChem BioAssay AID463173 (ICCB-Longwood Screening Facility, Harvard Medical School, 2010)
# Among all 52,000 compounds or so, about 1,700 (3.3%) were called active. Rule as the data show it: active = survival mostly below about 52% (no sharp cut-off); inactive = mostly above about 56%. Some of the results follow.
# Tested on: Wild type
# Test: S. aureus survival, RN4220 and DeltatarO strains – OD600, teichoic acid synthesis inhibitors, primary screen (AID 463173)
# Conditions: S. aureus RN4220 wild type/DeltatarO growth, OD600, 18 h, stronger effect = lower value, screened at 18.75 µg/mL (by protocol)
row,Compound,survival
1,CCOC(=O)CNc1nnc(SCC(=O)OCC)[nH]c1=O,inactive: 97%
2,Cc1nnc2c(Nc3cccc(O)c3)nc3ccccc3n12,inactive: 75%
3,CC(C)(C)c1nnc(NC(=O)CS(=O)(=O)Cc2ccccc2)s1,inactive: 104%
4,Cc1cc2c(N=NC(=O)C3CC34CCC4)c(O)[nH]c2cc1Br (configuration not stated),inactive: 97%
5,CC(=O)Nc1ccc(C)cc1-c1nc2ccccc2n(CC(=O)Nc2cc(Cl)ccc2C)c1=O,inactive: 90%
6,O=C(O)c1ccc(CO)o1,inactive: 101%
7,CC(C)CN1C(=O)c2ccc(Br)cc2C1=O,inactive: 100%
8,COC(=O)c1ccc(C(C)N(C)C)o1 (configuration not stated),inactive: 107%
9,CCCN1Cc2cccc(C(=O)Nc3cc(C)cc(C)c3)c2C1=O,inactive: 87%
10,Cc1nc2ccc(NC(=O)C3CC3)cc2c(=O)n1Cc1ccc(F)cc1,inactive: 103%
11,COc1ccc(Cl)cc1NC(=O)CCC(=O)N1CCOc2ccccc21,inactive: 83%
12,CCO/C(C)=N\Oc1cc(=O)oc2ccccc12,inactive: 122%
13,COc1ccc(NC(=O)CSc2nc(-c3ccco3)cc(C(F)(F)F)n2)cc1,inactive: 99%
14,COc1ccc(NC(=O)Cn2c(=O)n(Cc3ccc(C(=O)NCc4ccccc4Cl)cc3)c(=O)c3ccccc32)cc1OC,inactive: 89%
15,Cc1ccc(-n2ncc3c(NCCCn4ccnc4)ncnc32)cc1Cl,inactive: 75%
16,COc1ccc(CC(=O)NCC(c2ccc(N(C)C)cc2)N2CCOCC2)cc1 (configuration not stated),inactive: 81%
17,CC(C)c1ccc(OC(=O)c2cc(-c3ccc(Cl)cc3)on2)cc1,inactive: 98%
18,CCCNC(=O)N1[C@H](c2ccc(C)s2)[C@@H](C)C(=O)[C@@H](C)[C@@H]1c1ccc(C)s1,inactive: 83%
19,COC(=O)c1cnc(NCc2ccc(F)cc2)c2ccccc12,inactive: 135%

row,Compound,survival
1,Cc1cc(F)ccc1S(=O)(=O)Nc1ccc2c(c1)CCCN2C(=O)c1cccs1,inactive: 75%
2,COc1ccc(N2C(=O)C(CC(=O)Nc3ccc(F)cc3)N(Cc3ccc4c(c3)OCO4)C2=O)cc1 (configuration not stated),inactive: 79%
3,Nc1nnnn1/N=C/c1cccc(Br)c1,inactive: 117%
4,CCN(CC)C(=O)Cn1c(=O)nc(-c2ccccc2F)c2cc(Cl)ccc21,inactive: 73%
5,CCOC(=O)Cc1ccc(NC(=O)NCc2cccn2Cc2ccccc2)cc1,active: -6%
6,O=C1c2[nH]nc(-c3ccccc3O)c2C(c2ccccc2F)N1Cc1ccncc1 (configuration not stated),inactive: 93%
7,Cc1ccc(NC(=O)CSc2nc(-c3cccs3)nc3cc(=O)[nH]n23)cc1,inactive: 71%
8,COc1ccc(-n2c(=O)c3sc4ccccc4c3n(CC(=O)Nc3ccccc3F)c2=O)cc1,inactive: 87%
9,CCC(Cc1ccccc1)NC(=O)Cn1ncc2c3ccccc3n(Cc3ccccc3)c2c1=O (configuration not stated),inactive: 80%
10,CCOc1ccc(C(=O)c2cn(Cc3ccc(Cl)cc3)c3cc(OC)c(OC)cc3c2=O)cc1,inactive: 143%
11,CCc1nc2nc(C)cc(Nc3ccc(OC)cc3OC)n2n1,inactive: 75%
12,Cc1ccc(Nc2nnc(-c3ccc(C)c(S(=O)(=O)N4CCOCC4)c3)c3ccccc23)c(C)c1,inactive: 148%
13,Cc1ccc2c(c1)NC(=O)C(CC(=O)Nc1ccccc1Cl)O2 (configuration not stated),inactive: 75%
14,Cc1oc(-c2ccc(Cl)cc2)nc1CN1CCC(C(=O)NCCCN2CCN(c3cccc(Cl)c3)CC2)CC1,inactive: 30%
15,CC(C)CNCC(=O)N(C1CCCCC1)C1CCCCC1,inactive: 115%
16,Cc1ccc(Cl)cc1N1CCN(C(=O)c2cc(S(=O)(=O)N3CCCC3)cn2C)CC1,inactive: 96%
17,COC(=O)c1cc2c(ccn2-c2ccc(F)cc2)n1CC(=O)N1CC(C)CC(C)C1 (configuration not stated),inactive: 113%
18,COc1ccc(C(=O)NCCc2sc(-c3ccc(Cl)cc3)nc2C)c(OC)c1,inactive: 124%
19,COc1ccc(C)cc1Nc1nc2cc(Cl)c(Cl)cc2nc1-n1nc(C)cc1C,inactive: 82%

row,Compound,survival
1,C=Cc1ccc(CN2C(=O)N(c3ccc(CC)cc3)S(=O)(=O)c3ccccc32)cc1,active: 1%
2,COc1ccc(C)cc1NC(=O)CSc1nc(=O)n(Cc2ccncc2)c2c1CCC2,inactive: 124%
3,COc1ccc(C)cc1NC(=O)NCc1ccc2c(c1)CCN2C(=O)c1ccccc1,inactive: 119%
4,Cc1ccc(NC(=O)Cn2c(=O)n(-c3ccccc3)c(=O)c3c4c(sc32)CCCC4)cc1,inactive: 89%
5,O=C(Cc1ccc(Cl)cc1)n1cc(Cl)cn1,inactive: 97%
6,COc1cc(NC(=O)CN2C(=O)COc3ccc(S(=O)(=O)N4CCCCC4)cc32)cc(OC)c1,inactive: 94%
7,CCc1cccc(N2C(=O)N(CC(=O)NCc3cccc(OC)c3OC)c3ccccc3S2(=O)=O)c1,inactive: 72%
8,CCCN1C(=O)C(Cc2nc3ccccc3c(=O)n2-c2ccccc2)c2cc(C)ccc21 (configuration not stated),inactive: 83%
9,Cc1ccc(C)c(CN2C(=O)c3ccccc3S(=O)(=O)c3ccc(C(=O)N4CCN(c5ccccn5)CC4)cc32)c1,inactive: 80%
10,COC(=O)c1ccc(OCC2c3cc(OC)c(OC)cc3CCN2C(=O)C(C)C)cc1 (configuration not stated),inactive: 118%
11,CCOC(=O)COc1ccc(C)cc1C(=O)c1ccn2nc(-c3ccc(C)cc3)cc2n1,inactive: 72%
12,O=C(CSc1ncc2c(n1)-c1ccccc1N(Cc1ccccc1)S2(=O)=O)Nc1ccccc1,active: -6%
13,COCCNC(=O)c1ccc(CSc2nc3ccncc3n2Cc2ccccc2)cc1,inactive: 81%
14,COc1cccc(NC(=O)CSc2nc3ccccc3n2C)c1,inactive: 71%
15,CCC(=O)N1CCc2cc(S(=O)(=O)CCC(=O)N3CCN(c4cc(C)ccc4C)CC3)ccc21,inactive: 78%
16,COc1ccc(OC)c(NC(=O)CN(C)S(=O)(=O)c2ccc3[nH]c4c(c3c2)CCCC4)c1,inactive: 69%
17,CCOc1ccc(NC(=O)c2c(NC(=O)Cc3ccccc3)sc3c2CCC(C)C3)cc1 (configuration not stated),inactive: 67%
18,Cc1ccc(Cn2nnc3c(=O)[nH]c(C4CCN(S(=O)(=O)c5ccc(S(=O)(=O)NC6CC6)cc5)CC4)nc32)cc1,inactive: 117%
19,COc1ccc(Cn2nnc(C(=O)Nc3cc(OC)ccc3OC)c2N)cc1,inactive: 76%
